Results on six molecules are retold here after paper PMC5400511.

Chains of the proteins cited; added tags and fusions are not shown.
UniProt Q04656: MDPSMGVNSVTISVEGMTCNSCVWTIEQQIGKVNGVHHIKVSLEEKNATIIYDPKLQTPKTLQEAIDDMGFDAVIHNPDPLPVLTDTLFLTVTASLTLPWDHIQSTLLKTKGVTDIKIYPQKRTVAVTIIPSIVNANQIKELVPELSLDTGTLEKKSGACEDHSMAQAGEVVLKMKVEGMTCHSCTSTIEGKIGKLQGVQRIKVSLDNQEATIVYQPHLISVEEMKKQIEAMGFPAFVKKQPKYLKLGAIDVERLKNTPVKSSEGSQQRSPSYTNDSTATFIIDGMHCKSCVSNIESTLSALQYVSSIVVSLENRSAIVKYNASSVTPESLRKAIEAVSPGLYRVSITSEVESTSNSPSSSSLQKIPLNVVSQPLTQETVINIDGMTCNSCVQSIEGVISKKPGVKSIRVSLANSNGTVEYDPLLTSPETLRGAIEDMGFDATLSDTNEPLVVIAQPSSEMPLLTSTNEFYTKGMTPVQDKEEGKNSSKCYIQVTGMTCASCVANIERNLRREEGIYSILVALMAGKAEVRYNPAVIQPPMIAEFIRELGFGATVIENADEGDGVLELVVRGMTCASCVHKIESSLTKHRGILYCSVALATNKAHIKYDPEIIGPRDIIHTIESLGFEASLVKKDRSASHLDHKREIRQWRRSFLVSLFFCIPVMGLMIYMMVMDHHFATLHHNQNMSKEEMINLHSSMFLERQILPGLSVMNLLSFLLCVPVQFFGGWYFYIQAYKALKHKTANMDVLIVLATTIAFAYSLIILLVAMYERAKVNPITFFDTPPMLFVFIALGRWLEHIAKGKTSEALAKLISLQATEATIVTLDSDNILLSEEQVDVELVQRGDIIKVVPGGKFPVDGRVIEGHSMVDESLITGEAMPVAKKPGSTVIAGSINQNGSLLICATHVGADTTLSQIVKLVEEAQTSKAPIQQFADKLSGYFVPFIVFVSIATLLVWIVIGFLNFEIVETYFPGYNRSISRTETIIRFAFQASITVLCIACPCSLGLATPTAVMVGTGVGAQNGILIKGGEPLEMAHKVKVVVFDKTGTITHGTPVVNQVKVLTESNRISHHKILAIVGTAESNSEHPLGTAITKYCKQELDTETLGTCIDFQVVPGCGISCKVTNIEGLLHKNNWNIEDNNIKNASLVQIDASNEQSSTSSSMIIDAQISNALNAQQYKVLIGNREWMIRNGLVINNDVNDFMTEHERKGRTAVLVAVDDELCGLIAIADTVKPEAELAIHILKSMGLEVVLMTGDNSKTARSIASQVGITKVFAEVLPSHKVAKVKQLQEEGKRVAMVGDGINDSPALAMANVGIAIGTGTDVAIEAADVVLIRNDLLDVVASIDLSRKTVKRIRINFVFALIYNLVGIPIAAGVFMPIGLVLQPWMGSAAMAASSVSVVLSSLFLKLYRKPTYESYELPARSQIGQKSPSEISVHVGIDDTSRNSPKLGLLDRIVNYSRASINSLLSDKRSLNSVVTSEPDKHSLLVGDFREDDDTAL
UniProt P46459: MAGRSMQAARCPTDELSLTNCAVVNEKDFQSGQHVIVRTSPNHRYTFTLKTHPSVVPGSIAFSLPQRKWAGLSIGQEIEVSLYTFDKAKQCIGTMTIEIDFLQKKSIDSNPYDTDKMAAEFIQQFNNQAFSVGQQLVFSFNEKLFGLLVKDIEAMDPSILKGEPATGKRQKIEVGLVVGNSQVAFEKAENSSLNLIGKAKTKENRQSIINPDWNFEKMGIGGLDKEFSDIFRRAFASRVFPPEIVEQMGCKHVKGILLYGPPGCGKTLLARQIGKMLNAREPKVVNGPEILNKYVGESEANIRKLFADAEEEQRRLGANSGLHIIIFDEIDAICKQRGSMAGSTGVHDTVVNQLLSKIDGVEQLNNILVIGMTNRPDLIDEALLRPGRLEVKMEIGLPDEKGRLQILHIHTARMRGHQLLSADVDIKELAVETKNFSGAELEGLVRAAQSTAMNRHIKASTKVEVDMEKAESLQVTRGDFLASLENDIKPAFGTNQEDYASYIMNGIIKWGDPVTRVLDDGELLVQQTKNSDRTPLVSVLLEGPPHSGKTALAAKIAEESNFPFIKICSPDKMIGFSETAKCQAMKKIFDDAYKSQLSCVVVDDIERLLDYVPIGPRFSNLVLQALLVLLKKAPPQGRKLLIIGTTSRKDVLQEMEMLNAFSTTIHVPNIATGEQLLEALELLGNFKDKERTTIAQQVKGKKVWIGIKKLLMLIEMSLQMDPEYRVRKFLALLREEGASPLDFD
UniProt P19838: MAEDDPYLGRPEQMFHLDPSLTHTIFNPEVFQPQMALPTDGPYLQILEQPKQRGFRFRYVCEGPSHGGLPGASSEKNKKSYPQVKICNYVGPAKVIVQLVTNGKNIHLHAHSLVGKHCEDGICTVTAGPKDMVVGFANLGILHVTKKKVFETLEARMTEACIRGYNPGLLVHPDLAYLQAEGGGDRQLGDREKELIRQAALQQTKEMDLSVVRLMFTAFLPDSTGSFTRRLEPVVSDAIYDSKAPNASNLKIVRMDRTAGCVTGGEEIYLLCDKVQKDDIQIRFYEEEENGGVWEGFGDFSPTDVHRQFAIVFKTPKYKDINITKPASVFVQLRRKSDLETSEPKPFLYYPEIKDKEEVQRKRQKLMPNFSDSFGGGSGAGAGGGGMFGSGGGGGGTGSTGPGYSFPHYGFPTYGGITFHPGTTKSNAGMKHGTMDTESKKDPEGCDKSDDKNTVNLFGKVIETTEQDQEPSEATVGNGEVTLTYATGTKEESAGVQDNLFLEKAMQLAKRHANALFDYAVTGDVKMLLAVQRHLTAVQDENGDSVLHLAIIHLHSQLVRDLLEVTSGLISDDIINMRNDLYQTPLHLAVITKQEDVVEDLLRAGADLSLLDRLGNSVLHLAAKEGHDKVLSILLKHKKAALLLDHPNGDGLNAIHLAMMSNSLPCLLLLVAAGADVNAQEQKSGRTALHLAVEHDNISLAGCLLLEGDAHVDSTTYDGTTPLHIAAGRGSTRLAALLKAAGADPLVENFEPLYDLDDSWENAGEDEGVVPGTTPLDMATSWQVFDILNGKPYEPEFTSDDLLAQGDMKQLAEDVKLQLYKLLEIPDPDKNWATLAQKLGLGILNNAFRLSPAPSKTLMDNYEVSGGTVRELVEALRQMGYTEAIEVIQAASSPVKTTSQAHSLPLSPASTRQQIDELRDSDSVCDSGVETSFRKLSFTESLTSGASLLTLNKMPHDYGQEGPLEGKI
UniProt Q96N67: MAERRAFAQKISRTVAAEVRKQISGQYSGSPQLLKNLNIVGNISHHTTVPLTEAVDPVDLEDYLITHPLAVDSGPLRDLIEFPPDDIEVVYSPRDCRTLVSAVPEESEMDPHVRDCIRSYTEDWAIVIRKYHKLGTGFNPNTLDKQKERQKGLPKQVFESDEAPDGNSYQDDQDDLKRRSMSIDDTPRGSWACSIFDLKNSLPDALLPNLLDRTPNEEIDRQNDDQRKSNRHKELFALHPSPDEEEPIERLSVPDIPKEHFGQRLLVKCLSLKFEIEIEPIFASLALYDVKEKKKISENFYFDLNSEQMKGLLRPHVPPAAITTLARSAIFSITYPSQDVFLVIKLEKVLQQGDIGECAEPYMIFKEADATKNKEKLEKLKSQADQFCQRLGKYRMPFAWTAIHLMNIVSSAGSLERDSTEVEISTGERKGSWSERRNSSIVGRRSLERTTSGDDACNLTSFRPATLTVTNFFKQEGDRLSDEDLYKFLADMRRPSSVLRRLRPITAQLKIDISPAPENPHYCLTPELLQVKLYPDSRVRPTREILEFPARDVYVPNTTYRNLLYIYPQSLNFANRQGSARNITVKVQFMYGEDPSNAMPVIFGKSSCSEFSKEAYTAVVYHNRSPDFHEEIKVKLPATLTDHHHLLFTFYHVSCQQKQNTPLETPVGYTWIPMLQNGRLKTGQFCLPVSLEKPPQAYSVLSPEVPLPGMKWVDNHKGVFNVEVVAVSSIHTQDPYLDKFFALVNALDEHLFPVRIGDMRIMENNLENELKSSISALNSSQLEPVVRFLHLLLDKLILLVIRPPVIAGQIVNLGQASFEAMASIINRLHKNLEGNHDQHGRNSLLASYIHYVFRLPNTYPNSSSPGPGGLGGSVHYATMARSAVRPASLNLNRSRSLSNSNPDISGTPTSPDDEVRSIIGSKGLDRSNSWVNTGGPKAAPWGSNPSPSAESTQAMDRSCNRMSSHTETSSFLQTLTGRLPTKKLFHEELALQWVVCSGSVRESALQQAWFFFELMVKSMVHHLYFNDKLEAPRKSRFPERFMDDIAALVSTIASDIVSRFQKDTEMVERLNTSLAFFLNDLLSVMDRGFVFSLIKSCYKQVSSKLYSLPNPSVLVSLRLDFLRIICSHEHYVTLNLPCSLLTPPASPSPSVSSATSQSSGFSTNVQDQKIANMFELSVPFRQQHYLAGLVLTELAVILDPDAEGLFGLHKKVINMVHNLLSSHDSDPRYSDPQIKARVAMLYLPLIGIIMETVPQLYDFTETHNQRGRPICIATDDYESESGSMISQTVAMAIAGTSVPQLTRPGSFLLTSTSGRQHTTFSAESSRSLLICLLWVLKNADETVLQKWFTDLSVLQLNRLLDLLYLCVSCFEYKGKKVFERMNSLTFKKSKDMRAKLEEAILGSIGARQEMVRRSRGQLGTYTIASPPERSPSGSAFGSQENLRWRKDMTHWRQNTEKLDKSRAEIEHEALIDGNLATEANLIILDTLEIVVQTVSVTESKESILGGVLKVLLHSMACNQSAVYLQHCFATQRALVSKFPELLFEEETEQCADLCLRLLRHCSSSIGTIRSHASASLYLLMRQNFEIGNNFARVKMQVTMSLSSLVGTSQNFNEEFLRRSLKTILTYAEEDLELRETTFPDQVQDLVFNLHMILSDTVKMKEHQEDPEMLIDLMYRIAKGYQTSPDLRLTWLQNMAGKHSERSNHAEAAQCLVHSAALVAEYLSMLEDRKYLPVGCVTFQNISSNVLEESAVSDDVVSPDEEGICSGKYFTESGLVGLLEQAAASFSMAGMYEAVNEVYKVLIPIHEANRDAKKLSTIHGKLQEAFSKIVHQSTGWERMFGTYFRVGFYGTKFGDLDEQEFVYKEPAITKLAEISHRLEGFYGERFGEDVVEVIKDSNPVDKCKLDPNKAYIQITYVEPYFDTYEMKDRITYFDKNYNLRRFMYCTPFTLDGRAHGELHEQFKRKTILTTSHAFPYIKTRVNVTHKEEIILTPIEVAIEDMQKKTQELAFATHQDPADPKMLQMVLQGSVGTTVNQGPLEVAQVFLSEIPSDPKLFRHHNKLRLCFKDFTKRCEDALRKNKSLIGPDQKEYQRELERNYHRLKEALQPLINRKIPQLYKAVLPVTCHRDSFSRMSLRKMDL

No constants are given. Whether binding was seen depends on the method and setting. In cells and extracts the contact can be indirect. Some entries that bind do so weakly or less than the wild type.

B1: dopamine beta hydroxylase (protein, UniProt P09172 1-617)
chain: MPALSRWASLPGPSMREAAFMYSTAVAIFLVILVAALQGSAPRESPLPYHIPLDPEGSLELSWNVSYTQEAIHFQLLVRRLKAGVLFGMSDRGELENADLVVLWTDGDTAYFADAWSDQKGQIHLDPQQDYQLLQVQRTPEGLTLLFKRPFGTCDPKDYLIEDGTVHLVYGILEEPFRSLEAINGSGLQMGLQRVQLLKPNIPEPELPSDACTMEVQAPNIQIPSQETTYWCYIKELPKGFSRHHIIKYEPIVTKGNEALVHHMEVFQCAPEMDSVPHFSGPCDSKMKPDRLNYCRHVLAAWALGAKAFYYPEEAGLAFGGPGSSRYLRLEVHYHNPLVIEGRNDSSGIRLYYTAKLRRFNAGIMELGLVYTPVMAIPPRETAFILTGYCTDKCTQLALPPSGIHIFASQLHTHLTGRKVVTVLVRDGREWEIVNQDNHYSPHFQEIRMLKKVVSVHPGDVLITSCTYNTEDRELATVGGFGILEEMCVNYVHYYPQTQLELCKSAVDAGFLQKYFHLINRFNNEDVCTCPQASVSQQFTSVPWNSFNRDVLKALYSFAPISMHCNKSSAVRFQGEWNLQPLPKVISTLEEPTPQCPTSQGRSPAGPTVVSIGGGKG
B2: thioredoxin (protein, UniProt P10599 1-105)
chain: MVKQIESKTAFQEALDAAGDKLVVVDFSATWCGPCKMIKPFFHSLSEKYSNVIFLEVDVDDCQDVASECEVKCMPTFQFFKKGQKVGEFSGANKEKLEATINELV
B3: GIGYF2/PARK11 (protein, UniProt Q6Y7W6 1-1299)
chain: MAAETQTLNFGPEWLRALSSGGSITSPPLSPALPKYKLADYRYGREEMLALFLKDNKIPSDLLDKEFLPILQEEPLPPLALVPFTEEEQRNFSMSVNSAAVLRLTGRGGGGTVVGAPRGRSSSRGRGRGRGECGFYQRSFDEVEGVFGRGGGREMHRSQSWEERGDRRFEKPGRKDVGRPNFEEGGPTSVGRKHEFIRSESENWRIFREEQNGEDEDGGWRLAGSRRDGERWRPHSPDGPRSAGWREHMERRRRFEFDFRDRDDERGYRRVRSGSGSIDDDRDSLPEWCLEDAEEEMGTFDSSGAFLSLKKVQKEPIPEEQEMDFRPVDEGEECSDSEGSHNEEAKEPDKTNKKEGEKTDRVGVEASEETPQTSSSSARPGTPSDHQSQEASQFERKDEPKTEQTEKAEEETRMENSLPAKVPSRGDEMVADVQQPLSQIPSDTASPLLILPPPVPNPSPTLRPVETPVVGAPGMGSVSTEPDDEEGLKHLEQQAEKMVAYLQDSALDDERLASKLQEHRAKGVSIPLMHEAMQKWYYKDPQGEIQGPFNNQEMAEWFQAGYFTMSLLVKRACDESFQPLGDIMKMWGRVPFSPGPAPPPHMGELDQERLTRQQELTALYQMQHLQYQQFLIQQQYAQVLAQQQKAALSSQQQQQLALLLQQFQTLKMRISDQNIIPSVTRSVSVPDTGSIWELQPTASQPTVWEGGSVWDLPLDTTTPGPALEQLQQLEKAKAAKLEQERREAEMRAKREEEERKRQEELRRQQEEILRRQQEEERKRREEEELARRKQEEALRRQREQEIALRRQREEEERQQQEEALRRLEERRREEEERRKQEELLRKQEEEAAKWAREEEEAQRRLEENRLRMEEEAARLRHEEEERKRKELEVQRQKELMRQRQQQQEALRRLQQQQQQQQLAQMKLPSSSTWGQQSNTTACQSQATLSLAEIQKLEEERERQLREEQRRQQRELMKALQQQQQQQQQKLSGWGNVSKPSGTTKSLLEIQQEEARQMQKQQQQQQQHQQPNRARNNTHSNLHTSIGNSVWGSINTGPPNQWASDLVSSIWSNADTKNSNMGFWDDAVKEVGPRNSTNKNKNNASLSKSVGVSNRQNKKVEEEEKLLKLFQGVNKAQDGFTQWCEQMLHALNTANNLDVPTFVSFLKEVESPYEVHDYIRAYLGDTSEAKEFAKQFLERRAKQKANQQRQQQQLPQQQQQQPPQQPPQQPQQQDSVWGMNHSTLHSVFQTNQSNNQQSNFEAVQSGKKKKKQKMVRADPSLLGFSVNASSERLNMGEIETLDDY

The target of one assay is ATP7A (human (endogenous in SH-SY5Y)) (UniProt Q04656). The assay can be described thus: co-IP; SH-SY5Y cells cross-linked with DSP (also after BCS or CuCl2 pre-treatment), lysed in buffer A with 0.5% Triton X-100; ATP7A immunoprecipitated with monoclonal antibody on Dynal magnetic beads, 2 hr at 4°C; control with 22 uM antigenic ATP7A peptide; immunoblot.
Regarding NSF (from UniProt P46459 1-744), the binding result is given as “binds”. In the case of NFKB1 (from UniProt P19838 1-968), the binding result is given as “binds”. As for DOCK7 (from UniProt Q96N67 1-2140), the binding result is “binds”.

The next assay shares this target. Described as above. The source holds these as a separate data set.
In the case of B1, the binding result is on record as “binds”. As to B2, the binding entry is reported as “no binding”. For the molecule B3, the binding result is recorded as “binds”.
